{"source": "PubChem BioAssay AID651820", "about": "(National Center for Advancing Translational Sciences (NCATS), 2012)", "note": "Several values for one entry are separate records, joined by “and”; a condition that tells them apart may be missing. Identical values can stand only once. Among all 340,000 compounds or so, about 12,000 (3.5%) were called active. The shares of active, inactive and inconclusive entries below differ from those in the screen. Calls follow the shape of the dose curve; as a rule, active = well fitted inhibition curve with a large enough effect; inconclusive = small, poorly fitted or top-dose-only effect, or another doubt; inactive = no such curve, though single readings can be large or run the other way. Potencies beside an inconclusive call are fits to weak or partial responses and may not hold up. % is scaled to controls: 0 for no effect and ±100 for the full control effect; potency is read from the fitted curve at half-maximal effect; tags tell the direction and shape of the fitted curve."}
{"assay": "qHTS Assay for Inhibitors of Hepatitis C Virus (HCV)", "settings": "Huh7.5.1 HCVcc-Cre (HCVcc is cell-culture hepatitis C virus) infection, luciferase reporter, 44 h; activity change, negative = inhibition: at 41.8 µM (top of the series)", "method_in_brief": "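Luciferase read-out (15 sec integration) after a 15 min room-temperature substrate step quantifies HCVcc-Cre infection. Cells, 1,000 per well, had compound added 4 h post-plating, then virus at ~0.5 moi, and were cultured 44 h.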"}
{"compound": "COc1ccc(S(=O)(=O)N2CCN(CC(=O)Nc3ccccc3Cl)CC2)cc1", "Potency": "inconclusive: 22.4 µM [inhibitor, single point]"}
{"compound": "Cc1nc(-c2cccc(NC(=O)c3ccc(-n4nccc4C)cc3)c2)cs1", "Potency": "active: 10 µM"}
{"compound": "O=C(CSC1=NS(=O)(=O)c2cc(Cl)ccc2N1)Nc1ccccc1C(F)(F)F", "Potency": "inconclusive: 22.4 µM [inhibitor, single point]"}
{"compound": "c1ccc(C(Cc2nc(-c3ccncc3)no2)c2ccccc2)cc1", "Potency": "active: 7.94 µM"}
{"compound": "COc1cc(NC(=O)C2=C(N3CCOCC3)/C(=C\\c3ccc(Cl)cc3Cl)CC2)cc(OC)c1OC", "Potency": "inconclusive: 12.6 µM [inhibitor, partial curve]"}
{"compound": "CC(C)C[C@H]1C(=O)N2CCC[C@H]2[C@]2(O)O[C@](NC(=O)C3C=C4c5cccc6[nH]c(Br)c(c56)C[C@H]4N(C)C3)(C(C)C)C(=O)N12", "note": "(some centres not stated)", "Potency": "inconclusive: 31.6 µM [inhibitor, single point]"}
{"compound": "Cc1ccc(Nc2nc(-c3cccnc3)nc3ccccc23)cc1", "Potency": "active: 1.12 µM"}
{"compound": "COC(=O)c1ccccc1OCc1cccc(C)n1", "Potency": "inconclusive: 31.6 µM [inhibitor, single point]"}
{"compound": "CC(C)[C@H]1COCCS(=O)(=O)N1Cc1ccccc1F", "Potency": "inactive"}
{"compound": "CCOC(=O)c1cn[nH]c1N", "Potency": "inconclusive: 5.62 µM [inhibitor, single point]"}
{"compound": "Cc1nnc(Sc2cc(NCCCO)c([N+](=O)[O-])c3nonc23)s1", "Potency": "active: 10 µM"}
{"compound": "COC(=O)C=CC(=NNc1ccccc1)c1ccccc1", "Potency": "active: 22.4 µM"}
{"compound": "C=C(C)C(O)CC/C(C)=C/Cc1c(O)ccc(C(=O)/C=C/c2ccc(O)cc2)c1O", "note": "(configuration not stated)", "Potency": "inconclusive: 10 µM [inhibitor, partial curve]"}
{"compound": "S=C(NC1CCCCC1)N1CCN(c2ccccn2)CC1", "Potency": "inactive"}
{"compound": "Cc1nc2ccccc2c2oc(C(=O)NCCCN3CCCC3=O)cc12", "Potency": "inactive"}
{"compound": "Cc1ccc(OCC(O)CN2CCOCC2)cc1", "note": "(configuration not stated)", "Potency": "inactive"}
{"compound": "COc1cc(-c2ccc3oc(-c4ccsc4)c(C#CC4(O)CCCCC4)c3c2)cc(OC)c1OC", "Potency": "inconclusive: 5.62 µM [inhibitor, partial curve]"}
{"compound": "O=C(Nc1ccc(NC(=O)c2ccc(Cl)c(S(=O)(=O)N3CCOCC3)c2)cc1)c1ccccc1", "Potency": "inconclusive: 5.01 µM [inhibitor, single point]"}
{"compound": "O=C(Nc1ccccn1)C1CCN(c2ncnc3c2nc2n3CCCCC2)CC1", "Potency": "inconclusive: 1.78 µM [inhibitor, partial curve]"}
{"compound": "COC(=O)c1c(C)[nH]c(C(=O)OC(C)C(=O)N(C)C2CCCCC2)c1C", "note": "(configuration not stated)", "Potency": "inconclusive: 20 µM [inhibitor, partial curve, poor fit]"}
{"compound": "CCOC(=O)N1CCN(CC(c2ccccc2)c2ccccc2)CC1", "Potency": "inactive"}
{"compound": "COc1ccc(S(=O)(=O)n2nc(OCc3cccs3)cc2N)cc1", "Potency": "inconclusive: 3.16 µM [inhibitor, single point]"}
{"compound": "COc1cccc(N(CC(=O)N2CCCC2)S(C)(=O)=O)c1", "Potency": "inactive"}
{"compound": "CCOc1ccccc1/C=C/C(=O)N1CCN(C(=O)c2ccco2)CC1", "Potency": "inconclusive: 2.82 µM [inhibitor, full curve, poor fit]"}
{"compound": "CCOC(=O)Cn1nc(C)cc1NC(=O)c1cc(OC)c(OC)c(OC)c1", "Potency": "inconclusive: 25.1 µM [inhibitor, single point]"}
{"compound": "COc1cc(CSc2nnnn2-c2ccc(C)cc2)cc(OC)c1OC", "Potency": "inconclusive: 6.31 µM [inhibitor, full curve]"}
{"compound": "c1ccc(COc2ccccc2CNC2CCCC2)cc1", "Potency": "inconclusive: 31.6 µM [inhibitor, single point]"}
{"compound": "Cc1c(C(=O)N(C)C2CCCCC2)sc2ncnc(N3CCN(c4ccccc4F)CC3)c12", "Potency": "inconclusive: 22.4 µM [inhibitor, single point]"}
{"compound": "CC(=O)OC(C)C[N+](C)(C)C", "note": "(configuration not stated)", "Potency": "inconclusive: 31.6 µM [inhibitor, single point]"}
{"compound": "Cn1nc(-c2ccc(OCC(=O)NCC3CCCO3)cc2)c2ccccc2c1=O", "note": "(configuration not stated)", "Potency": "inconclusive: 22.4 µM [inhibitor, single point]"}
{"compound": "CCCCOc1ccc(CC(=O)NO)cc1", "Potency": "inconclusive: 3.55 µM [inhibitor, single point]", "activity change, negative = inhibition": "inactive: -1.23% [at 8.37 µM]"}
{"compound": "CCOC(=O)N1CCN(S(=O)(=O)c2ccc(F)c(C(=O)Nc3cc(C)cc(C)c3)c2)CC1", "Potency": "inactive and inconclusive: 12.6 µM [inhibitor, single point]"}
{"compound": "C/C(=N\\NC(=O)c1ccc(-c2ccccc2)cc1)c1ccco1", "Potency": "inactive"}
{"compound": "COc1ccc(CN2CCN(C(=O)c3cc(C4CC4)nn3-c3ccccc3)CC2)cc1F", "Potency": "inconclusive: 12.6 µM [inhibitor, single point]"}
{"compound": "C=CC[C@@H](Cc1ccc(F)cc1)C(=O)OC[C@H]1CCCN1C(=O)[C@@H](CC=C)CC(=O)N[C@H](CO)Cc1ccccc1", "Potency": "inconclusive: 31.6 µM [inhibitor, single point]"}
{"compound": "CN(CC(=O)Nc1cc(S(=O)(=O)N2CCCC2)ccc1Cl)Cc1nc2ccccc2c(=O)[nH]1", "Potency": "inconclusive: 11.2 µM [inhibitor, single point]"}
{"compound": "Fc1ccc2[nH]c3c(c2c1)CN(C(=S)NCc1ccccc1)CC3", "Potency": "inconclusive: 31.6 µM [inhibitor, single point]"}
{"compound": "COc1ccc(NC(=O)CN(C)C(=O)C(Sc2ccccc2)c2ccccc2)cc1", "note": "(configuration not stated)", "Potency": "inconclusive: 8.91 µM [inhibitor, partial curve]"}
{"compound": "COC(=O)c1c(N(S(C)(=O)=O)S(C)(=O)=O)sc2c1CCN(c1ncc(C(F)(F)F)cc1Cl)C2", "Potency": "inconclusive: 31.6 µM [inhibitor, single point]"}
{"compound": "CCOC(=O)CNc1nc(C(C)(C)C)nc2c1nnn2Cc1ccccc1Cl", "Potency": "inconclusive: 3.55 µM [inhibitor, full curve, poor fit]"}
{"compound": "CC(=O)c1cccc(OCc2cc(C(=O)N3C[C@@H](C)O[C@@H](C)C3)no2)c1", "Potency": "inconclusive: 2.24 µM [inhibitor, partial curve, poor fit]"}
{"compound": "CCCCCCSc1ccc(-c2nc3ccc(C)cn3c2NCc2ccccc2)cc1", "Potency": "inactive"}
{"compound": "Cc1cccc2cc(CN(Cc3ccccc3)C(=O)c3cccc(F)c3)c(Cl)nc12", "Potency": "inconclusive: 31.6 µM [inhibitor, single point]"}
{"compound": "COc1ccc(CNc2ccccc2)cc1Br", "Potency": "inconclusive: 11.2 µM [inhibitor, partial curve]"}
{"compound": "O=C(c1ccc2c(c1)OCCO2)C1CCN(C(=O)Nc2ccccc2F)CC1", "Potency": "inconclusive: 31.6 µM [inhibitor, single point]"}
{"compound": "CCCNS(=O)(=O)c1cccc(C(=O)OCc2cc(=O)oc3cc(OC)ccc23)c1", "Potency": "inactive"}
{"compound": "Cc1ccc(C)c(NP(=O)(Oc2ccccc2)Oc2ccccc2)c1", "Potency": "inconclusive: 31.6 µM [inhibitor, single point]"}
{"compound": "CCOC(=O)c1c(NC(=O)CSc2nnc3c(n2)[nH]c2ccccc23)sc2c1CCN(C)C2", "Potency": "active: 7.08 µM"}
{"compound": "Cc1cccc(N2CCN(C(=O)C3CCN(S(=O)(=O)N4CCOCC4)CC3)CC2)c1C", "Potency": "active: 10 µM"}
{"compound": "CCCCCN(C(=O)CCC(=O)OCCOc1ccc(OC)cc1)c1c(N)n(CCCC)c(=O)[nH]c1=O", "Potency": "inconclusive: 31.6 µM [inhibitor, single point]"}
{"compound": "CCc1ccc(NC(=O)CSc2nnc(-c3n[nH]c4ccccc34)n2-c2ccccc2)cc1", "Potency": "inconclusive: 3.16 µM [inhibitor, full curve]"}
{"compound": "CCOC(=O)c1cc(C)sc1NC(=O)C(c1ccccc1)c1ccccc1", "Potency": "inconclusive: 11.2 µM [inhibitor, single point]"}
{"compound": "CCCCOC(=O)c1ccc(NC(=O)c2ccccc2OC)cc1", "Potency": "inconclusive: 7.08 µM [inhibitor, partial curve]"}
{"compound": "Cn1c(CCN2CCCCCC2)nc2cc(NC(=O)Nc3ccccc3)ccc21", "Potency": "inconclusive: 25.1 µM [inhibitor, partial curve]"}
{"compound": "CCOC(=O)c1c(-c2ccccc2)oc2cc(Br)c(O)c(C=O)c12", "Potency": "inconclusive: 11.2 µM [inhibitor, partial curve]"}
{"compound": "CC1Cc2ccccc2N1S(=O)(=O)c1cccc(C(=O)NCc2ccco2)c1", "note": "(configuration not stated)", "Potency": "inconclusive: 25.1 µM [inhibitor, single point]"}
{"compound": "O=S(=O)(Cc1ccccc1Cl)Nc1ccccn1", "Potency": "inactive"}
{"compound": "CC(=O)N/C(=C\\c1ccccc1)C(=O)NC(C)C(=O)O", "note": "(configuration not stated)", "Potency": "inactive"}
{"compound": "O=C(NCc1ccncc1)c1nc(-c2ccc(C(F)(F)F)cc2)no1", "Potency": "inconclusive: 31.6 µM [inhibitor, single point]"}
{"compound": "COC(=O)c1ccccc1NC(=O)CSc1n[nH]c(-c2ccncc2)n1", "Potency": "inconclusive: 3.55 µM [inhibitor, full curve, poor fit]"}
{"compound": "C/C(Cl)=C\\Cn1c(Nc2ccc(C)cc2)nc2c1c(=O)n(C)c(=O)n2C", "Potency": "inconclusive: 2.51 µM [inhibitor, single point]"}
{"compound": "C=CCc1ccccc1OCC(O)CNC(C)C", "note": "(configuration not stated)", "Potency": "inconclusive: 31.6 µM [inhibitor, single point]"}
{"compound": "CC(Sc1nnc(-c2ccco2)o1)C(=O)NCCC1=CCCCC1", "note": "(configuration not stated)", "Potency": "inactive"}
{"compound": "Cc1ccc(NC(=O)C2CCC(CNC(=O)[C@@H]3Cc4ccccc4CN3)CC2)c(C)c1", "note": "(some centres not stated)", "Potency": "inconclusive: 22.4 µM [inhibitor, single point]"}
{"compound": "Cc1cccc(C)c1OCC(O)CN1CCc2ccccc2C1", "note": "(configuration not stated)", "Potency": "active: 12.6 µM"}
{"compound": "Cn1c(C(=O)N2CCN(c3cccc(C(F)(F)F)c3)CC2)cc2sccc21", "Potency": "inconclusive: 14.1 µM [inhibitor, single point]"}
